From the supplement of paper PMC11125491
± gives the standard deviation of the averaged measurements. Growth of baker's yeast expressing single-residue variants of Pneumocystis jirovecii dihydrofolate reductase in 8.8 or 44 µM methotrexate (about 75% and 90% inhibition of the wild type). Selection coefficient per generation; 0 = like wild type, above 0 = less sensitive, below 0 = more sensitive or loss of function. No active / inactive call per row; the paper calls resistant above 0.220 (8.8 µM) or 0.243 (44 µM) together with a significance test. At 44 µM about 15% of codons end with one read or none, so the lowest values are floors (replicate rank correlation 0.74; 0.94 at 8.8 µM).

B1: UniProt A0EPZ9; numbered along this chain (parent)
chain: MDWQKSLTLIVALTLSRGIGLKNDLPWKLKSDMMFFSRVTSGLLVTRSTGQMNVVLMGRKTWESLPAHSRPLKNRINVVISRQEVLDLGGGAYHARSLDDALALLSQIYDSTSKIQLNRVFVIGGGELCKAAMEHSRLNRIIATVIHNEVDCDVFFPIDFRSSQSCLPWRKQDHSVLEAWVGSKVPQGKINENGFIYEFEMWIRDI

Variants of: B1
Assay: selection coefficient against synonymous wild-type codons (log2 per generation); higher = faster growth than wild type
Conditions: with Saccharomyces cerevisiae carrying the variant on a plasmid
Description: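 Pooled growth of yeast carrying single-residue variants of P. jirovecii dihydrofolate reductase (own DFR1 gene intact), two passages at 30 °C, three cultures, sequenced before and after. Codons with under 15 starting reads are left out; codons of one change are averaged.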

Variant | selection coefficient against synonymous wild-type codons (log2) (methotrexate 8.8 µM) | selection coefficient against synonymous wild-type codons (log2) (methotrexate 44 µM)
H135W | -0.181 ± 0.059 | -0.12 ± 0.13
H135M | -0.201 ± 0.026 | 0.0931 ± 0.42
H135R | -0.288 ± 0.066 | -0.272 ± 0.11
H135G | -0.291 ± 0.05 | -0.231 ± 0.12
H135V | -0.377 ± 0.054 | 0.0467 ± 0.46
H135D | 0.0676 ± 0.033 | 0.215 ± 0.08
H135Q | -0.181 ± 0.03 | -0.162 ± 0.2
H135L | -0.179 ± 0.079 | -0.179 ± 0.19
H135N | -0.0576 ± 0.084 | 0.0259 ± 0.14
H135E | -0.314 ± 0.028 | -0.314 ± 0.16
H135C | -0.0289 ± 0.055 | -0.101 ± 0.09
H135F | -0.257 ± 0.011 | -0.175 ± 0.033
H135K | -0.302 ± 0.038 | -0.303 ± 0.036
H135S | 0.0415 ± 0.041 | 0.0844 ± 0.1
H135P | -0.553 ± 0.25 | -0.124 ± 0.22
H135Y | -0.0963 ± 0.029 | -0.0302 ± 0.14
H135I | -0.361 ± 0.026 | -0.206 ± 0.057
H135A | -0.307 ± 0.062 | -0.317 ± 0.1
H135T | -0.0913 ± 0.06 | -0.133 ± 0.14
L138F | 0.277 ± 0.02 | 0.386 ± 0.017
L138C | 0.188 ± 0.041 | 0.2 ± 0.048
L138G | 0.223 ± 0.033 | 0.325 ± 0.051
L138D | -0.226 ± 0.0049 | -0.115 ± 0.11

Variant | selection coefficient against synonymous wild-type codons (log2) (methotrexate 8.8 µM) | selection coefficient against synonymous wild-type codons (log2) (methotrexate 44 µM)
L138I | -0.0156 ± 0.013 | -0.0583 ± 0.17
L138K | -0.0939 ± 0.064 | -0.113 ± 0.12
L138E | -0.105 ± 0.053 | -0.0919 ± 0.073
L138H | -0.0836 ± 0.017 | -0.113 ± 0.041
L138A | 0.297 ± 0.024 | 0.424 ± 0.033
A132Q | -0.818 ± 0.14 | -0.383 ± 0.044
A132R | -0.686 ± 0.11 | -0.198 ± 0.13
A132D | -0.286 ± 0.022 | -0.0539 ± 0.053
A132C | -0.181 ± 0.0097 | -0.346 ± 0.054
A132L | -0.136 ± 0.055 | -0.179 ± 0.13
A132P | -0.608 ± 0.15 | -0.225 ± 0.059
A132I | -0.0737 ± 0.051 | -0.111 ± 0.12
A132M | -0.278 ± 0.039 | -0.255 ± 0.064
A132G | -0.599 ± 0.14 | -0.359 ± 0.084
A132S | -0.469 ± 0.11 | -0.27 ± 0.15
A132T | -0.126 ± 0.044 | -0.0532 ± 0.17
A132W | -0.342 ± 0.047 | -0.422 ± 0.056
A132F | -0.366 ± 0.065 | -0.274 ± 0.16
A132N | -0.744 ± 0.054 | -0.24 ± 0.023
A132V | 0.0796 ± 0.028 | 0.144 ± 0.038
A132K | -0.687 ± 0.1 | -0.314 ± 0.049
A132Y | -0.566 ± 0.14 | -0.392 ± 0.029
A132E | -0.682 ± 0.054 | -0.446 ± 0.059

Variant | selection coefficient against synonymous wild-type codons (log2) (methotrexate 8.8 µM) | selection coefficient against synonymous wild-type codons (log2) (methotrexate 44 µM)
A132H | -0.733 ± 0.014 | -0.186 ± 0.096
E127V | -0.379 ± 0.062 | -0.232 ± 0.12
E127Y | -0.258 ± 0.018 | -0.184 ± 0.083
E127D | -0.145 ± 0.033 | -0.0722 ± 0.1
E127M | -0.0805 ± 0.025 | -0.0739 ± 0.056
E127H | -0.162 ± 0.053 | 0.156 ± 0.12
E127T | -0.00672 ± 0.018 | 0.0929 ± 0.12
E127F | -0.267 ± 0.023 | -0.132 ± 0.054
E127P | 0.603 ± 0.037 | 1.12 ± 0.07
E127G | -0.0981 ± 0.023 | -0.142 ± 0.095
E127K | -0.147 ± 0.02 | -0.0567 ± 0.23
E127N | -0.1 ± 0.011 | -0.099 ± 0.02
E127Q | -0.0106 ± 0.034 | 0.243 ± 0.021
E127W | 0.0175 ± 0.046 | -0.0271 ± 0.044
E127R | -0.084 ± 0.043 | 0.00117 ± 0.27
E127I | -0.486 ± 0.033 | -0.347 ± 0.039
E127S | 0.034 ± 0.055 | 0.0927 ± 0.12
E127A | -0.0556 ± 0.035 | 0.207 ± 0.074
E127C | -0.449 ± 0.14 | -0.243 ± 0.038
E127L | -0.325 ± 0.12 | -0.096 ± 0.24
L128G | -0.665 ± 0.17 | -0.268 ± 0.11
L128M | -0.384 ± 0.061 | -0.169 ± 0.092
L128C | -0.568 ± 0.1 | -0.341 ± 0.051

Variant | selection coefficient against synonymous wild-type codons (log2) (methotrexate 8.8 µM) | selection coefficient against synonymous wild-type codons (log2) (methotrexate 44 µM)
L128R | -0.738 ± 0.074 | -0.286 ± 0.087
L128V | -0.261 ± 0.041 | -0.333 ± 0.081
L128F | -0.363 ± 0.051 | -0.364 ± 0.11
L128N | -0.726 ± 0.046 | -0.18 ± 0.07
L128K | -0.776 ± 0.047 | -0.272 ± 0.038
L128A | -0.737 ± 0.083 | -0.233 ± 0.093
L128I | -0.246 ± 0.022 | -0.212 ± 0.14
L128Y | -0.515 ± 0.17 | -0.145 ± 0.026
L128D | -0.746 ± 0.076 | -0.355 ± 0.051
L128W | -0.388 ± 0.08 | -0.297 ± 0.037
L128T | -0.609 ± 0.13 | -0.291 ± 0.08
L128S | -0.627 ± 0.098 | -0.337 ± 0.1
L128E | -0.48 ± 0.068 | -0.258 ± 0.12
L128Q | -0.687 ± 0.1 | -0.227 ± 0.068
L128H | -0.251 ± 0.0066 | -0.234 ± 0.19
L128P | -0.473 ± 0.15 | -0.137 ± 0.21
M133W | -0.0911 ± 0.034 | -0.0361 ± 0.13
M133D | -0.651 ± 0.16 | -0.277 ± 0.066
M133H | -0.521 ± 0.096 | -0.351 ± 0.07
M133L | 0.067 ± 0.042 | 0.0693 ± 0.06
M133T | -0.307 ± 0.1 | -0.145 ± 0.047
M133V | -0.129 ± 0.038 | -0.11 ± 0.15
M133I | -0.0738 ± 0.028 | -0.0778 ± 0.16

Variant | selection coefficient against synonymous wild-type codons (log2) (methotrexate 8.8 µM) | selection coefficient against synonymous wild-type codons (log2) (methotrexate 44 µM)
M133N | -0.45 ± 0.076 | -0.262 ± 0.028
M133A | 0.0446 ± 0.044 | 0.0446 ± 0.15
M133G | -0.416 ± 0.091 | -0.291 ± 0.13
M133P | -0.678 ± 0.12 | -0.209 ± 0.097
M133R | -0.346 ± 0.074 | -0.255 ± 0.1
M133C | -0.127 ± 0.029 | -0.182 ± 0.052
M133F | 0.125 ± 0.011 | 0.232 ± 0.034
M133Y | -0.0908 ± 0.07 | 0.0188 ± 0.24
M133S | -0.151 ± 0.052 | -0.186 ± 0.12
M133Q | -0.348 ± 0.083 | -0.11 ± 0.078
M133K | -0.358 ± 0.044 | 0.0803 ± 0.35
M133E | -0.433 ± 0.13 | -0.314 ± 0.11
S136R | -0.108 ± 0.04 | -0.116 ± 0.11
S136E | 0.0357 ± 0.033 | 0.0387 ± 0.017
S136K | 0.0602 ± 0.033 | -0.0523 ± 0.23
S136F | 0.0694 ± 0.033 | 0.16 ± 0.09
S136W | -0.0793 ± 0.016 | -0.149 ± 0.17
S136H | -0.0533 ± 0.03 | -0.105 ± 0.15
S136T | -0.0562 ± 0.041 | -0.0732 ± 0.17
S136C | 0.00655 ± 0.034 | -0.00998 ± 0.1
S136A | -0.00258 ± 0.02 | -0.139 ± 0.16
S136V | -0.12 ± 0.031 | -0.1 ± 0.091
S136D | -0.0566 ± 0.045 | -0.0677 ± 0.08
